Results: PubChem BioAssay AID1224863 (Southern Research Institute, 2016)
Several values for one entry are separate records, joined by “and”; a condition that tells them apart may be missing. Equal values may be shown once. This is one part of the list. Shown are side measurements of this screen, not its main read-out; they come without a call.

Columns and labels:
[1] = compounds raising F508del-CFTR protein level – cell-based, HeLa F508del-CFTR, immunofluorescence, viability, primary screen (AID 1224863); conditions: immunofluorescence total CFTR, 24 h, stronger effect = higher value; min viability: measured here: HeLa viability, alamarBlue, dose 25, library dosed in µM unless noted; viability: measured here: primary viability 25 uM, at 25 µM, library dosed in µM unless noted;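 on fold increase: total CFTR protein by anti-CFTR immunofluorescence in fixed cells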
[2] = target: Cystic fibrosis transmembrane conductance regulator (Homo sapiens) (UniProt P13569); assay: as above; conditions: immunofluorescence total CFTR, 24 h, stronger effect = higher value; measured here: primary screen single dose 25 uM, at 25 µM, library dosed in µM unless noted
UniProt P13569, sequence (P13569 whole entry, looked up): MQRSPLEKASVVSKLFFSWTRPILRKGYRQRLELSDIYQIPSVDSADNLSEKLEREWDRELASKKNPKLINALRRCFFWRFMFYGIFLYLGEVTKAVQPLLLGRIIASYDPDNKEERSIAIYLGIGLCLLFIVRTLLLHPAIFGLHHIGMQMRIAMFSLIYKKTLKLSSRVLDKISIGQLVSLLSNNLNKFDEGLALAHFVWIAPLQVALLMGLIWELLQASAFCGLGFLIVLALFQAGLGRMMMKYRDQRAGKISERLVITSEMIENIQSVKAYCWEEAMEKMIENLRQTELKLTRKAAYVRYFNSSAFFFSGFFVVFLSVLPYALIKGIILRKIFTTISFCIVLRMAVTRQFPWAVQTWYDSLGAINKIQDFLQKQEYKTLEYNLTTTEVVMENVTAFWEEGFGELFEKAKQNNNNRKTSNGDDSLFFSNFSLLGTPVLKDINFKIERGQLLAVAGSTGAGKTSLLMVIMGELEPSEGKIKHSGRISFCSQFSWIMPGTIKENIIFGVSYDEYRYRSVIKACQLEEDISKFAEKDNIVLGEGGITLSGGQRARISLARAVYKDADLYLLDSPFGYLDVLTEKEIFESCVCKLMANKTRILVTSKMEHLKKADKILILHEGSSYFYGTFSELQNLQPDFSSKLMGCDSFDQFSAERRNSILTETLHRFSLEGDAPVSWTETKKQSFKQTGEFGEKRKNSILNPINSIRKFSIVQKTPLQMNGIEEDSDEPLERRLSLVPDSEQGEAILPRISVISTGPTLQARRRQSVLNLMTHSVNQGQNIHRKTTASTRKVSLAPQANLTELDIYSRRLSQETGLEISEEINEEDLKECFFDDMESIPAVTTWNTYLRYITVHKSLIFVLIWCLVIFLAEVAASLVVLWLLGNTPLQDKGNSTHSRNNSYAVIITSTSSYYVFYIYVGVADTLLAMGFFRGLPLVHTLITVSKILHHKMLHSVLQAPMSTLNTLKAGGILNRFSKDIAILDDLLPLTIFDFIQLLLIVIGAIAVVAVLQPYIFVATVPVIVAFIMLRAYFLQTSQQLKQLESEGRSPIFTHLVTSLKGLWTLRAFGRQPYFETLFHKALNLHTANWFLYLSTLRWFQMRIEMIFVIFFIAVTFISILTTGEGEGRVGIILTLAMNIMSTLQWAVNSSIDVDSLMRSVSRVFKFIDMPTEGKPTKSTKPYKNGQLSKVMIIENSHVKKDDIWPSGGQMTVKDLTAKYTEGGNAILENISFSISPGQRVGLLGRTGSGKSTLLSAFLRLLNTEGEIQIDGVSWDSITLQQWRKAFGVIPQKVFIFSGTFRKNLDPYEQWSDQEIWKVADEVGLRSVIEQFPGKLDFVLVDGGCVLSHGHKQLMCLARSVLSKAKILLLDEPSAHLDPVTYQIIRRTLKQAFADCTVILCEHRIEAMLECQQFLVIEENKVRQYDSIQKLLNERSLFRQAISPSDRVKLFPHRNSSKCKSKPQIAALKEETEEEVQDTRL

Row | SMILES | min viability [1] | viability [1] | fold increase [2]
1 | O=C(O)c1ccccc1-c1c2cc(Br)c(=O)cc-2oc2[c]([Hg])c(O)c(Br)cc12 | 68.4% [measured here: HeLa viability, alamarBlue, dose 1.56, library dosed in µM] | 94% | 4.2
2 | CC1CC(C)CN(C(=O)CN2CCCC2=O)C1 (centres undefined) | 68% [measured here: HeLa viability, alamarBlue, dose 0.31, library dosed in µg/mL] | 97% [measured here: primary viability 10 ug/mL, library dosed in µg/mL] | 1.6 [measured here: primary screen 10 ug/mL, library dosed in µg/mL]
3 | CC[C@@]1(O)C(=O)OCc2c1cc1n(c2=O)Cc2cc3ccccc3nc2-1 | 55.5% | 67% and 87% | 1.32 and 1.43
